# Out of some 50,000 compounds screened, about 800 (1.6%) showed an effect of 50% or more. Some of the results follow.
# Target: Bcl-2-like protein 10 (Homo sapiens) (UniProt Q9HD36)
# Assay: Phenotype converters, Bcl-B/TR3 peptide binding displacement, primary biochemical FP (AID 1240);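 note: 0% = Bcl-B with tracer peptide and DMSO and 100% = tracer peptide lacking Bcl-B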
# Conditions: GST-Bcl-B / FITC-TR3 peptide fluorescence polarization; stronger effect = higher value; compound at 3.75 mg/L
# UniProt Q9HD36, sequence (Q9HD36 whole entry, looked up): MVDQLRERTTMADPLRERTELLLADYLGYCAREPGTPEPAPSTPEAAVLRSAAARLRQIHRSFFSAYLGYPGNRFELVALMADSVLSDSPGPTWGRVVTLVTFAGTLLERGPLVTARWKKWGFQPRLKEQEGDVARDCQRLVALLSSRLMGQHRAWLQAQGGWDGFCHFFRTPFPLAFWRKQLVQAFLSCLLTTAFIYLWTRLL
row,Structure (SMILES),displacement
1,O=[N+]([O-])c1cccc(-c2cn(-c3ccccc3)c3[n+]2CCCS3)c1,4.1%
2,CC(=O)OC1(c2ccccc2)CC(C)CN(C(C)(C)C)C1 (configuration not stated),2.6%
3,Cc1cccc(N2C(=O)NC(=O)C(=Cc3ccco3)C2=O)c1,12.2%
4,Cc1cccc(OP(=O)(Oc2ccccc2)Oc2cccc(C)c2)c1,16.4%
5,CN1CCN(c2ccc([N+](=O)[O-])c(N3CCN(C)CC3)c2Cl)CC1,1.2%
6,Cc1ccc(S(=O)(=O)N2CCN(/C(N)=N/[N+](=O)[O-])CC2)cc1,13.8%
7,Cc1cc(OCc2ccccc2)c2c3c(c(=O)oc2c1)CCCC3,-3%
8,CCc1ccc(/C=C2/C(=O)NC(=O)N(c3ccc(OC)cc3)C2=O)cc1,-18.1%
9,Cn1cccc1/C=C1/C(=O)NC(=S)N(c2ccc(Cl)cc2)C1=O,20.8%
10,COc1ccccc1-n1c(Cc2ccccc2)nc2ccccc2c1=O,-13.5%
11,O=C1NC(=O)C(=Cc2cccc(Cl)c2)C(=O)N1,-5.3%
12,CN1CC[C@@](O)(c2ccccc2)[C@@H]2CCC[C@@H]21,1.7%
13,CCCCCCOC(=O)C1CN1C(Cc1ccccc1)C(=O)OC (configuration not stated),14.4%
14,O=C(c1cccs1)C1CN2CCC1CC2 (configuration not stated),14.6%
15,COc1ccc(-n2c(/C=C/c3ccco3)nc3ccccc3c2=O)cc1,-27.1%
16,COc1ccc(OP(=O)(Oc2ccccc2)Oc2ccc(OC)cc2)cc1,5%
17,O=c1c2ccccc2nc(-c2ccc([N+](=O)[O-])cc2)n1-c1cccc(Cl)c1,-5.2%
18,Cc1cc(OCC(=O)OC(C)(C)C)c2c3c(c(=O)oc2c1)CCC3,10.1%
19,CC(=O)c1ccc(OC(=O)Cc2ccccc2)cc1,14.1%
20,CN1C(=O)NC(=O)/C(=C/c2ccc(Br)o2)C1=O,2.2%
21,COc1ccccc1N1CCN(C(=O)C(O)(c2ccccc2)c2ccccc2)CC1,0.5%
22,O=c1[nH]c(=O)n(-c2ccccc2)c(O)c1N=Nc1ccc(Br)cc1,120%
23,C=CCc1cc(/C=C2\C(=O)NC(=O)N(c3cc(C)cc(C)c3)C2=O)cc(OCC)c1O,-6.6%

row,Structure (SMILES),displacement
1,Cc1[nH]c2cc(S(=O)(=O)O)c(Oc3ccccc3)cc2c1CCN,11.9%
2,COc1cc(CN2CCN(C(=O)Cc3ccccc3)CC2)cc(OC)c1O,1.6%
3,O=C(Cn1c[n+]([N-][N+](=O)[O-])cn1)Nc1ccc(NC(=O)Cn2c[n+]([N-][N+](=O)[O-])cn2)cc1,59.6%
4,C[C@@H]1CC[C@@]2(NC1)OC1C[C@H]3C4CC=C5CC(O)CCC5(C)C4CCC3(C)C1[C@@H]2C (some centres not stated),-6.6%
5,CCCC1C(=O)NC(=S)N(c2ccccc2)C1=O (configuration not stated),-15.5%
6,O=c1c2ccccc2nc(-c2cccs2)n1-c1cnccn1,-0.8%
7,N#CC1=C(N)Oc2c(c(=O)oc3ccccc23)C1c1ccccc1 (configuration not stated),0%
8,C=CCN1C(=O)NC(=O)/C(=C/c2c3ccccc3cc3ccccc23)C1=O,-7.2%
9,O=[N+]([O-])c1ccc(NCCNCCO)c2ncccc12,-26%
10,CCc1ccc(N2C(=O)NC(=O)/C(=C/C=C/c3ccco3)C2=O)cc1,8%
11,Cc1ccc(/C=C2/C(=O)NC(=O)N(c3ccc(Cl)cc3)C2=O)o1,36.2%
12,CN1C(=O)C(=Cc2ccccc2Cl)C(=O)N(C)C1=O,-0.3%
13,O=C(Cc1ccccc1)N1CCN(Cc2ccccc2)CC1,11.6%
14,COc1ccc(Br)cc1CN1CCNCC1,-22.2%
15,COc1cccc(CCNCc2c(F)cccc2F)c1,3.2%
16,COc1ccc(Br)cc1CN1CCN(C(=O)COc2ccccc2)CC1,2.5%
17,O=C(Nc1ccccc1)N1CNC(=N[N+](=O)[O-])NC1,-1.7%
18,CN1C(=O)C(=Cc2ccc(-c3cccc(C(=O)O)c3)o2)C(=O)N(C)C1=O,13%
19,O=C(Nc1ccc(Cl)c(-c2nc3ncccc3o2)c1)c1cccc(OCc2ccccc2)c1,-2.6%
20,O=C1NC(=S)NC(=O)C1=Cc1ccc(O)cc1,-3.4%
21,CC12CN3CC(C)(CN(C1)C31CCCC1)C2O (configuration not stated),-4.8%
22,C1=C(c2ccccc2)Nc2nonc2N=C1c1ccccc1,-1.1%
23,CN1CCN(/N=C/c2cccnc2)CC1,0.7%

row,Structure (SMILES),displacement
1,Cc1ccc(-c2nc3ccccc3c(=O)n2-c2nccs2)cc1,-0.6%
2,CC1(C)CN1S(=O)(=O)c1ccccc1 (configuration not stated),-39.9%
3,COc1cc(C=C2C(=O)N(C)C(=O)N(C)C2=O)ccc1OCCOc1ccccc1,54.3%
4,COc1ccc(CN2CCN(Cc3cc(Br)ccc3O)CC2)cc1,13.1%
5,CN1CCN(c2ccc([N+](=O)[O-])c(NC3CC3)c2)CC1,9.7%
6,C(=NCCCN1CCOCC1)c1c[nH]c2ccccc12,2.6%
7,COc1ccccc1-n1c(/C=C/c2cccnc2)nc2ccccc2c1=O,-2.3%
8,CC(C)C12CN3CCN(CC(C3)/C1=N\O)C2,-2.3%
9,O=C(COc1ccc2ccccc2c1)N1CCN(Cc2cccc(Cl)c2)CC1,6.9%
10,Cc1cc(Cl)ccc1NC1=NCC(C)S1 (configuration not stated),-3.4%
11,O=C(Nc1ccc(Br)cc1C(=O)c1ccccc1)c1ccc(F)cc1,8.4%
12,CCOP(=S)(OCC)SCC(=O)NC(C)(CC)C(=O)O (configuration not stated),13.9%
13,N/C(=N\[N+](=O)[O-])N1CCN(C(=O)c2ccco2)CC1,1.2%
14,CN1C2CCC1CC(=NOC(=O)c1ccc(F)cc1)C2,-5.4%
15,Cc1cc(C=C2C(=O)NC(=O)NC2=O)c(C)n1-c1cccnc1,6.3%
16,O=c1n(Cc2ccccc2)c2ccccc2n1CC1CS1 (configuration not stated),6.5%
17,CCN1CCN(C(=O)COc2ccc(C34CC5CC(CC(C5)C3)C4)cc2)CC1,-11.9%
18,N#CC(C#N)=Cc1ccc(Sc2ccccc2)o1,-8.9%
19,COc1ccc2[nH]cc(CCN)c2c1,12.9%
20,O=C(CNC(=O)OCc1ccccc1)NCC(=O)Nc1ccc(Br)cc1C(=O)c1ccccc1,11.8%
21,Clc1cccc(CNCCc2ccc3c(c2)OCO3)c1,-14.3%
22,O=C1Nc2ccc(Br)cc2C(c2ccccc2Cl)=NC1O (configuration not stated),13.3%
23,O=C(O)Cn1cc(/C=C2\C(=O)NC(=O)N(c3ccc(Cl)cc3)C2=O)c2ccccc21,-16.9%

row,Structure (SMILES),displacement
1,COc1ccccc1-n1c(/C=C/c2c[nH]c3ccccc23)nc2ccccc2c1=O,-3.8%
2,COc1ccc(/C=C2\CC3C4CC=C5CC(O)CCC5(C)C4CCC3(C)C2=O)cc1 (configuration not stated),5.1%
3,O=[N+]([O-])c1ccc(CNCCc2cccc(F)c2)cc1,2.2%
4,O=P(Oc1ccccc1)(Oc1ccccc1)C(NCc1ccccc1)c1ccccc1 (configuration not stated),5.7%
5,CC(Nc1ccc([N+](=O)[O-])c2cccnc12)C12CC3CC(CC(C3)C1)C2 (configuration not stated),0%
6,COc1ccc(CNCCc2ccc3c(c2)OCO3)c(OC)c1C,15.1%
7,COC(=O)C1C2C(=O)N(c3ccc([N+](=O)[O-])cc3)C(=O)C12c1ccc(C)cc1 (configuration not stated),-32.2%
8,CCSc1nc2ccccc2c(=O)n1-c1cccc(C)c1,-5.6%
9,CCCCCCCOC(=O)CC(CN)c1ccccc1 (configuration not stated),11.1%
10,O=Cc1cn(Cc2ccc(Cl)c(Cl)c2)c2ccccc12,9.8%
11,CN1C(=O)NC(=O)/C(=C/c2ccc(-c3cccc(C(=O)O)c3)o2)C1=O,-9.5%
12,COc1ccc(C=C(C#N)C#N)cc1OC,6%
13,COc1ccc(CN2CCN(Cc3ccc(SC)cc3)CC2)cc1,8.7%
14,CCOP(=O)(OCC)C1(O)C(=O)Nc2ccc(Br)cc21 (configuration not stated),7.7%
15,Cc1cc(OCc2ccc(Cl)cc2)c2c3c(c(=O)oc2c1)CCC3,10.5%
16,Cc1cccc(C)c1N1CCN(c2c(C)cccc2C)CC1,5.9%
17,CCOC(=O)c1c(C)n(CC(O)CN2CCOCC2)c2cc(Br)c(OC)cc12 (configuration not stated),-9.8%
18,COc1ccc(CCNCc2ccc(Cl)cc2)cc1OC,-32.4%
19,Cc1cccc(-n2c(=S)[nH]c3ccccc3c2=O)c1,-6.2%
20,CN(C)c1ccc(/C=C2\CC3C4CC=C5CC(O)CCC5(C)C4CCC3(C)C2=O)cc1 (configuration not stated),3.2%
21,Clc1cccc(CNCCc2c[nH]c3ccccc23)c1,-13.9%
22,O=C(COc1ccccc1[N+](=O)[O-])Nc1ccc(Cl)cc1C(=O)c1ccccc1,2.8%
23,CN(C)c1ccc(/C=C2\C(=O)NC(=S)N(c3cccc4ccccc34)C2=O)cc1,27.9%

row,Structure (SMILES),displacement
1,Cc1ccc(N2C(=O)CC(=O)NC2=S)cc1,5.6%
2,O=C1Nc2ccc(Br)cc2C1=Cc1nc2ccccc2c(=O)n1-c1ccc(O)cc1,-1%
3,O=[N+]([O-])c1cccc(CN2CCN(Cc3cccc(Cl)c3)CC2)c1,-0.3%
4,Cc1ccc(-n2c(C)cc(/C=C3/C(=O)NC(=O)N(C)C3=O)c2C)cc1,-10.4%
5,Cc1cc(-c2ccc(C=C3C(=O)NC(=S)NC3=O)o2)c(C)c([N+](=O)[O-])c1,15%
6,COC(=O)COc1ccc(C=C2C(=O)NC(=O)NC2=O)cc1,3.3%
7,Cc1cccc(C(=O)NC(Oc2ccccc2[N+](=O)[O-])C(Cl)(Cl)Cl)c1 (configuration not stated),6.3%
8,CCc1ccc(CNCCc2ccc(OC)cc2)cc1,-21.3%
9,CN1C(=O)C(=Cc2ccc(N3CCCC3)c([N+](=O)[O-])c2)C(=O)N(C)C1=O,29.4%
10,CC(C)(C)c1ccc(OCCOc2ccccc2C=C2C(=O)NC(=O)NC2=O)cc1,4.6%
11,Cc1cc(OCC(=O)C(C)(C)C)c2c3c(c(=O)oc2c1)CCC3,10.3%
12,CN1C(=O)C(=Cc2ccc(C(=O)O)cc2)C(=O)N(C)C1=O,-15.9%
13,Cc1ccc(C=C2C(=O)NC(=O)NC2=O)o1,8.8%
14,Oc1ccc(Br)cc1CN1CCN(Cc2ccc(Cl)cc2)CC1,1.4%
15,Oc1ccc(Br)cc1CN1CCN(Cc2ccc(F)cc2)CC1,7.7%
16,O=c1c2ccccc2nc(/C=C/c2ccc([N+](=O)[O-])cc2)n1-c1cccc(O)c1,0%
17,CC(Cc1ccccc1)NC(=O)/C=C/c1ccco1 (configuration not stated),3.1%
18,O=c1c2ccccc2nc(-c2ccccn2)n1-c1ccc(Cl)cc1,3.2%
19,COc1ccccc1-n1c(-c2cccs2)nc2ccccc2c1=O,-4.7%
20,CC(C)CCn1c(=O)c(C(=O)Nc2ccc(I)cc2)c(O)c2ccccc21,7.1%
